Results reported in the antibiotic and cytotoxicity screens of Wong et al. (2023).
Some of the results follow.

Tests used:
HSkMC = human skeletal muscle cells; experiment: cytotoxicity call (relative viability < 0.9); details: 10 µM
HepG2 = experiment: cytotoxicity call (relative viability < 0.9); details: 10 µM
S. aureus RN4220 = experiment: growth inhibition call (relative growth <= 0.2); details: 50 µM

Row | SMILES | cytotoxicity call (HSkMC) | cytotoxicity call (HepG2) | growth inhibition call (S. aureus RN4220)
1 | CCO[C@H]1[C@H]2CC[C@@H]1NC2 | inactive | inactive | inactive
2 | COCC(=O)N[C@@H]1[C@@H]2CNC[C@@H]21 | inactive | inactive | inactive
3 | COC(C)(C)CCCC(C)CC=CC(C)=CC(=O)OC(C)C (configuration not stated) | inactive | inactive | inactive
4 | N#Cc1cccnc1 | inactive | inactive | inactive
5 | COc1c(C[C@@H](C)O)c2c3c(C[C@@H](C)O)c(OC)c(=O)c4c(O)cc5c(c6c(cc(O)c(c1=O)c62)OCO5)c43 | active | active | inactive
6 | N#C[C@H](O[C@@H]1O[C@H](CO[C@@H]2O[C@H](CO)[C@@H](O)[C@H](O)[C@H]2O)[C@@H](O)[C@H](O)[C@H]1O)c1ccccc1 | inactive | inactive | inactive
7 | CC(=O)N1CCCC[C@]12CCNC2 | inactive | inactive | inactive
8 | CC(C)C[C@@H](N)C1(c2ccc(Cl)cc2)CCC1 | inactive | inactive | inactive
9 | Cc1nn[nH]n1 | inactive | inactive | inactive
10 | Cc1ccc2c(CCN)c(C)n(C)c2c1 | inactive | active | inactive
11 | C[C@]12C(=O)OC(=O)[C@]1(C)[C@H]1CC[C@H]2O1 | active | active | inactive
12 | COc1cc2c(cc1OC)C13CCN4CC5=CCOC6CC(=O)N2C1C6C5CC43 (configuration not stated) | inactive | inactive | inactive
13 | CCC1(CC)C(=O)C=CNC1=O | inactive | inactive | inactive
14 | COc1ccc(OC(=O)N(C)C[C@H]2OCc3ccccc3-c3c(n(C)c4ccccc34)C(=O)N([C@H](C)CO)C[C@@H]2C)cc1 | inactive | inactive | inactive
